Sequences with one replicate were seen in a single cluster, so their values are uncertain.
Test system: ATP
Experiment: switch fluorescence ratio, 500 uM ATP over buffer (Cy3 cluster intensity, sum of 5 cycles each) (fold (ratio)); higher = stronger signal-on switching upon ATP binding; sequences stand for … in TCGTCGGCAGCGTCAGATGTGTATAAGAGACAGTTTTTTTTTTTTTTTTTTTTTTTTT…TC
Conditions: aptamer strand: ATP DNA aptamer (quencher-CACCTGGGGGAGTATTGCGGAGGAAGG + anchor), 100 nM annealed; ATP concentration: 500 uM; one replicate
Procedure, shortened: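 The fluorescence ratio divides summed target-cycle Cy3 intensity by summed buffer-cycle Cy3 intensity for each cluster and is averaged per switch-domain sequence. Cy3-labelled switching-strand clusters on a modified Illumina MiSeq flow-cell were annealed to 100 nM quencher-labelled ATP aptamer, then imaged in selection buffer and again after 15 min with 500 uM ATP at 22 °C. Five such cycles were run, with NaOH stripping and re-annealing between them, and clusters outside 100-1000 RFU were excluded.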
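Further: ATP exposure 15 min at 22 °C before imaging.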

| Sequence | switch fluorescence ratio |
| --- | --- |
| TGCCCTATGT | 1.01 |
| TGCCCTATTG | 0.988 |
| TGCCGCCAAT | 1.86 |
| TGCCGCCCAT | 1.96 |
| TGCCGCTCGG | 0.992 |
| TGCCGGAATT | 1.04 |
| TGCCGGGG | 0.969 |
| TGCCTAAAAA | 0.915 |
| TGCCTACGGA | 1.01 |
| TGCCTCGCAA | 2.59 |
| TGCCTGATGT | 0.984 |
| TGCCTGGGAG | 0.971 |
| TGCCTTAGGT | 1.01 |
| TGCCTTCGCA | 2.02 |
| TGCCTTCTTT | 1.04 |
| TGCGAATTGA | 0.979 |
| TGCGACGTCG | 0.978 |
| TGCGAGGAAT | 1.07 |
| TGCGCAGG | 1.01 |
| TGCGCATACA | 1.18 |
| TGCGCCACCG | 1.02 |
| TGCGCGACGT | 1.02 |
| TGCGCGGCTG | 0.97 |
| TGCGGAA | 0.963 |
| TGCGGACCGC | 1.01 |
| TGCGGACCGG | 0.957 |

| Sequence | switch fluorescence ratio |
| --- | --- |
| TGCGGAGAGA | 1.02 |
| TGCGGAGCGG | 1.05 |
| TGCGGATCGT | 1.02 |
| TGCGGCATGC | 1.11 |
| TGCGGCGCCA | 0.994 |
| TGCGGCTGG | 0.99 |
| TGCGGGAGAG | 1.01 |
| TGCGGTAACT | 0.955 |
| TGCGGTAATA | 0.971 |
| TGCGGTCAGG | 0.985 |
| TGCGGTGTCC | 0.988 |
| TGCGGTTGTG | 0.955 |
| TGCGTAACGG | 1.01 |
| TGCGTATTAG | 1.01 |
| TGCGTATTTG | 0.98 |
| TGCGTCCCTG | 0.979 |
| TGCGTGTGTG | 1.05 |
| TGCGTTTGT | 0.949 |
| TGCTAAGAT | 0.962 |
| TGCTAATTCC | 1.08 |
| TGCTACCTCG | 1.04 |
| TGCTAGGCGC | 0.944 |
| TGCTAGTGCA | 0.975 |
| TGCTATAACG | 0.962 |
| TGCTATTAAT | 1.06 |
| TGCTCCATGG | 1.01 |

| Sequence | switch fluorescence ratio |
| --- | --- |
| TGCTCGAGTC | 0.987 |
| TGCTCTAAGT | 0.962 |
| TGCTGATTAC | 1.09 |
| TGCTGGACAA | 0.98 |
| TGCTGGTCGC | 1 |
| TGCTGTGCTC | 1.04 |
| TGCTTAAGCT | 0.984 |
| TGCTTAGACG | 0.986 |
| TGCTTCCGAG | 2.75 |
| TGCTTGAAAG | 0.961 |
| TGCTTGGCG | 1.01 |
| TGCTTTCACG | 0.985 |
| TGCTTTGGTC | 0.986 |
| TGGAAAACCC | 1.05 |
| TGGAAAAGAG | 1.06 |
| TGGAAAAGCC | 0.992 |
| TGGAAAATCG | 1.01 |
| TGGAAGTAAG | 0.985 |
| TGGACAAGTC | 0.943 |
| TGGACAGCCT | 1.03 |
| TGGACGATTG | 1.04 |
| TGGACGCATC | 2.6 |
| TGGACTCCTA | 1.02 |
| TGGAGCTGCG | 1.04 |
| TGGAGGAAAT | 1.07 |
| TGGAGGACCG | 1.05 |

| Sequence | switch fluorescence ratio |
| --- | --- |
| TGGAGGGTGA | 1.02 |
| TGGAGGTTTA | 1.01 |
| TGGAGTAGAG | 1.04 |
| TGGAGTCAG | 1.02 |
| TGGAGTGGTC | 1.06 |
| TGGAGTGGTG | 0.999 |
| TGGATCCGCA | 4.2 |
| TGGATCGAAG | 1.02 |
| TGGATGCCCG | 1.02 |
| TGGATGCGGA | 1 |
| TGGATTCAGC | 1.07 |
| TGGATTGTGA | 1.01 |
| TGGATTTCTA | 0.961 |
| TGGATTTTC | 0.977 |
| TGGCAACCAT | 1.04 |
| TGGCAAGTTG | 0.993 |
| TGGCAATGTT | 1.03 |
| TGGCACACGA | 1.04 |
| TGGCACGCCC | 0.992 |
| TGGCAGGAG | 0.971 |
| TGGCAGGGG | 1.07 |
| TGGCAGGTGC | 1.4 |
| TGGCATTTG | 1.04 |
| TGGCCAAAAG | 1 |
| TGGCCAGTAG | 0.982 |
| TGGCCCATGG | 1.04 |

| Sequence | switch fluorescence ratio |
| --- | --- |
| TGGCCGATAG | 1.02 |
| TGGCCTGGCC | 1.02 |
| TGGCGAGCAA | 2.06 |
| TGGCGGTTGG | 1.01 |
| TGGCGTAACA | 1 |
| TGGCGTCCGT | 0.987 |
| TGGCGTCGGC | 1 |
| TGGCGTTCGA | 1.04 |
| TGGCTCGAAT | 0.994 |
| TGGCTCTACC | 1.03 |
| TGGCTGGAGC | 1.03 |
| TGGCTGGTCC | 0.97 |
| TGGCTGGTCG | 0.983 |
| TGGCTTGATG | 1 |
| TGGGAACAGG | 1.05 |
| TGGGAACCTT | 1.29 |
| TGGGACAAAG | 0.998 |
| TGGGACATG | 1.05 |
| TGGGACCAGT | 0.956 |
| TGGGATTGGA | 1.01 |
| TGGGCAGTAA | 1.09 |
| TGGGCATTGT | 0.952 |
| TGGGCGTTC | 1.07 |
| TGGGCTGCCT | 0.952 |
| TGGGCTTGTA | 0.972 |
| TGGGCTTTAA | 0.945 |

| Sequence | switch fluorescence ratio |
| --- | --- |
| TGGGGACATG | 1.01 |
| TGGGGATAG | 1.01 |
| TGGGGCACTC | 0.967 |
| TGGGGCATAA | 3.65 |
| TGGGGCTCAC | 1.03 |
| TGGGGGACCG | 0.976 |
| TGGGGGAGAC | 0.971 |
| TGGGGGCACC | 1 |
| TGGGGGCCGC | 1.03 |
| TGGGGGTACC | 0.978 |
| TGGGGTCTTA | 1.07 |
| TGGGGTTCG | 1.02 |
| TGGGTACAA | 1.05 |
| TGGGTATACC | 0.991 |
| TGGGTCCTTA | 0.955 |
| TGGGTCGTTT | 0.954 |
| TGGGTCTA | 1.05 |
| TGGGTCTAAT | 1.02 |
| TGGGTCTAT | 0.986 |
| TGGGTGCG | 0.993 |
| TGGGTGCTAC | 1.14 |
| TGGTAATGTC | 1.17 |
| TGGTAATTGC | 1.02 |
| TGGTACAAGC | 0.986 |
